Hit rate of the full screen: of about 48,000 compounds, about 550 (1.1%) were called active. Not shown: some 4% with an inconclusive outcome. Rule as the data show it: active = potency below about 15 µM; inconclusive = mostly about 16 µM to 33 µM; inactive = weaker than that. Some of the results follow.
molecular target: Lysosomal acid glucosylceramidase (Homo sapiens) (UniProt P04062); assay: Glucocerebrosidase; conditions: purified enzyme, resorufin glucoside fluorescence (screen aimed at inhibitors), 20 min;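 also: the screen sought inhibitors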
In short: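 Normal human glucocerebrosidase (0.2 nM final) was assayed with resorufin β-D-glucopyranoside (30 uM final) in 50mM citric acid/KH2PO4, 10mM sodium taurocholate, 0.01% tween-20, pH 5.9. Compounds were titrated; fluorescence (Ex 548, Em 600) read after 20 min at RT.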
Potency is read from the fitted curve at half-maximal effect.

UniProt P04062, sequence (P04062 whole entry, looked up): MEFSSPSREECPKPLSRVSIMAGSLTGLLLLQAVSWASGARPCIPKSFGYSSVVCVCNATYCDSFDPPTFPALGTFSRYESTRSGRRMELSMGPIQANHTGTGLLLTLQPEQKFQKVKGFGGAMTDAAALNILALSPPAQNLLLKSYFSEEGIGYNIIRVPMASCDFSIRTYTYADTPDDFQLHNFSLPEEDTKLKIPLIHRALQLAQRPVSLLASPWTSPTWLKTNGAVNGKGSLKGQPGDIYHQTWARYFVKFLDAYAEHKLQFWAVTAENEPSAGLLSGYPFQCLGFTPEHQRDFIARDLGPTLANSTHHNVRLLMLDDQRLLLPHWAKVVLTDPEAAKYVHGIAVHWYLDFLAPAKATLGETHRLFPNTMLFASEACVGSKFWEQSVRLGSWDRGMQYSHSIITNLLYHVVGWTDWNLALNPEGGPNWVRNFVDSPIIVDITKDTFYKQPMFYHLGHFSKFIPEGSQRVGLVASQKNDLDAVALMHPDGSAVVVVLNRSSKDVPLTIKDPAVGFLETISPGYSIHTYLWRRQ

Potency, inactive:
Cc1nc(NC2=NCN(CCc3ccccc3)CN2)nc2c(C)cccc12 > 76.9 µM
CCN(CC)C(=O)Oc1ccc2c(=O)c(-c3ccc(OC)cc3)coc2c1 > 76.9 µM
CCOc1ccc(OCc2cccc(C(=O)N3CCCC3)c2)cc1 > 76.9 µM
Cc1ccc2cc(CN(Cc3nnnn3C3CCCC3)C3CCCCC3)c(=O)[nH]c2c1C > 76.9 µM
CCCCCCOC(=O)C1=C(C)NC(=O)NC1c1ccc(O)cc1 (configuration not stated) > 76.9 µM
CCOC(=O)CSCC(=O)Nc1cc(C)ccc1C > 76.9 µM
C=C(C)c1cccc(C(C)(C)NC(=O)N2CCOCC2)c1 > 76.9 µM
Cc1ccc(OCC(=O)OC2CCS(=O)(=O)C2)cc1 (configuration not stated) > 76.9 µM
COc1cccc(NC(=O)c2ccccc2-c2nc(-c3ccccc3)no2)c1 > 76.9 µM
CCOC(=O)c1c(-c2ccc(C)o2)csc1NC(=O)CSc1nnc(C)s1 > 76.9 µM
Clc1ccc(N2CCN(c3ncnc4c3oc3ccccc34)CC2)cc1 > 76.9 µM
CS(=O)(=O)N1CCN(c2ccccc2NC(=O)c2cccnc2)CC1 > 76.9 µM
COCCn1cnc2cc(C)c(C)cc21 > 76.9 µM
O=C(CS(=O)(=O)c1cn(Cc2cccc(F)c2)c2ccccc12)N1CCCCC1 > 76.9 µM
Nc1c(C(=O)OCC2CCCO2)c2nc3ccccc3nc2n1-c1ccc2c(c1)OCCO2 (configuration not stated) > 76.9 µM
O=C(NCc1ccc(Cl)cc1)C1C2C=CC3(CN(Cc4cccnc4)C(=O)C13)O2 (configuration not stated) > 76.9 µM
Cc1cc(C)c2cc(C(O)c3nnnn3Cc3ccccc3)c(=O)[nH]c2c1 (configuration not stated) > 76.9 µM
CCOC(=O)CNC(=O)c1cn(C)c(=O)c2cc(OC)c(OC)cc12 > 76.9 µM
CCCCn1nnnc1NCc1ccc(OC)c(OC)c1OC > 76.9 µM
Cc1cccc(-c2noc(CN(C(=O)c3ccc4c(c3)OCO4)C(C)C)n2)c1 > 76.9 µM
c1ccc(CC2CCN(c3nc(N4CCOCC4)nc(N4CCOCC4)n3)CC2)cc1 > 76.9 µM
CCOC(=O)C1CCN(C(=O)CC2C(=O)N(Cc3ccccc3)C(C)c3nc4ccccc4n32)CC1 (configuration not stated) > 76.9 µM
N#Cc1c(NC(=O)COC(=O)C2CC3C=CC2C3)oc(-c2ccccc2)c1-c1ccccc1 (configuration not stated) > 76.9 µM
C=CCNC(=O)c1ccc(C(=O)c2ccccc2)cc1 > 76.9 µM
O=C(CSc1nnc(-c2cccnc2)n1-c1ccccc1)Nc1ccc2c(c1)OCO2 > 76.9 µM
Cc1c(C(=O)NCCN2CCOCC2)oc2ccccc12 > 76.9 µM
COc1ccc(S(=O)(=O)N(C)c2ccc(C(=O)NCC3CCCO3)cc2)cc1 (configuration not stated) > 76.9 µM
CCOC(=O)N1CCN(C(=O)c2cccc(NC(=O)c3ccco3)c2)CC1 > 76.9 µM
COCCNC(=O)c1sc2nc(-c3ccccc3)cn2c1C > 76.9 µM
COC(=O)C(NS(=O)(=O)c1ccc(NC(C)=O)cc1)C(C)C (configuration not stated) > 76.9 µM
Cc1nc2ccccc2n1CC(=O)NCc1ccccc1 > 76.9 µM
COc1ccc(S(N)(=O)=O)cc1C(=O)NCC1(N2CCCCC2)CCCCC1 > 76.9 µM
O=C(CCN1C(=O)C2C3C=CC(C3)C2C1=O)N1CC(=O)N(CCc2ccccc2)C(=O)C1 (configuration not stated) > 76.9 µM
CN1C(=O)c2oc3ccccc3c(=O)c2C1c1ccncc1 (configuration not stated) > 76.9 µM
CC1(C)CC(=O)C(CCC(=O)c2ccccc2)C(C)(C)N1 (configuration not stated) > 76.9 µM
Fc1ccc(-c2cc3nc4c(c(N5CCOCC5)n3n2)CCCC4)cc1 > 76.9 µM
O=S(=O)(/C=C/c1ccccc1)n1cnc2ccccc21 > 76.9 µM
O=C(OCCN1C(=O)c2ccccc2C1=O)c1cccc(OC(F)F)c1 > 76.9 µM
CCCC1(C(=O)OC)NC(c2cc(OC)c(OC)c(OC)c2)C2C(=O)N(CC)C(=O)C21 (configuration not stated) > 76.9 µM
CC(C)Nc1oc(-c2cccc3ccccc23)nc1C#N > 76.9 µM
Cn1c(=O)oc2cc(S(=O)(=O)Nc3ccc4c(c3)OCCO4)ccc21 > 76.9 µM
O=C(CN(Cc1ccc(F)cc1)C(=O)Cn1nnc2ccccc21)NCC1CCCO1 (configuration not stated) > 76.9 µM
CSc1ccccc1NC(=O)c1ccccc1N(C)S(C)(=O)=O > 76.9 µM
CC(=O)N1CCc2cc(S(=O)(=O)NCCC(=O)Nc3ccc4c(c3)OCCO4)ccc21 > 76.9 µM
CCN1CCN(C(c2ccccc2F)c2nnnn2Cc2ccc3c(c2)OCO3)CC1 (configuration not stated) > 76.9 µM
COc1ccc(C(=O)OCC(=O)c2cc(OC)ccc2OC)c(OC)c1 > 76.9 µM
CCOC(=O)CSc1nnc(CNc2ccc(Cl)cc2)n1-c1ccccc1 > 76.9 µM
Cc1cc(Cl)c(OCCCn2cncn2)c(Br)c1 > 76.9 µM
Nc1ccc2oc(-c3ccccn3)nc2c1 > 76.9 µM
CCOC(=O)c1cccc(NC(=O)c2cnccn2)c1 > 76.9 µM
CS(=O)(=O)Nn1cnc2ccccc2c1=O > 76.9 µM
O=c1ccn(Cc2ccccc2Cl)cc1 > 76.9 µM
O=C(O)c1ccc2noc(-c3ccccc3)c2c1 > 76.9 µM
COc1ccccc1N(C(=O)CNS(=O)(=O)c1ccccc1)C(C(=O)NCc1ccco1)C(C)C (configuration not stated) > 76.9 µM
CCCc1nnc(SCCSc2nnc(CCC)n2N)n1N > 76.9 µM
CCc1cc2cc(C)ccc2nc1SCC(=O)N1CCN(C(=O)c2ccco2)CC1 > 76.9 µM
Cc1ccc(CCNC(=O)NC(C)(C)C)cc1 > 76.9 µM
